Measurements from the supplement of paper PMC4967469.

Legend:
Test in all cases: Viability of human cancer cell lines after 72 h of drug (GDSC screen)
[1] = compound: C/C(O)=C(\C#N)C(=O)Nc1cc(Br)ccc1Br [LFM-A13]; details: top dose 16 µM; top dose inferred
Experimental: (§1)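 Human cancer cell lines in 384-well plates, medium with 10% serum, drug for 72 h over a 256-fold dose range (nine 2-fold or five 4-fold steps up to the top dose). Adherent lines were fixed and stained with the nucleic acid dye Syto60, suspension lines read with resazurin; signal relative to control wells, capped at 0 and 100%. One two-parameter sigmoid per drug and line, fitted in a mixed model over all curves with the slope shared within a line.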

[2] = compound: CCNC(=O)c1noc(-c2cc(C(C)C)c(O)cc2O)c1-c1ccc(CN2CCOCC2)cc1 [AUY922]; details: top dose 0.256 µM; top dose inferred
Experimental: as §1

[3] = compound: NC(=O)c1cccc(-c2cc(Nc3ccc(OC(F)(F)F)cc3)ncn2)c1 [GNF-2]; details: top dose 1.28 µM; top dose inferred
Experimental: as §1

[4] = compound: CC(O)(CS(=O)(=O)c1ccc(F)cc1)C(=O)Nc1ccc(C#N)c(C(F)(F)F)c1 [Bicalutamide]; details: top dose inferred
Experimental: as §1

[5] = compound: Nc1ccn([C@@H]2O[C@H](CO)[C@@H](O)C2(F)F)c(=O)n1 [Gemcitabine]; details: top dose 1.024 µM
Experimental: as §1

[6] = compound: CC(C)c1ccccc1Cc1cc(C(=O)Nc2ccc(S(=O)(=O)c3ccccc3C(C)(C)C)cc2)c(O)c(O)c1O [TW-37]; details: top dose 5 µM
Experimental: as §1

[7] = compound: Cc1cn(-c2cc(NC(=O)c3ccc(C)c(Nc4nccc(-c5cccnc5)n4)c3)cc(C(F)(F)F)c2)cn1 [Nilotinib]; details: top dose 2 µM
Experimental: as §1

[8] = compound: Cc1ccc(Nc2cc(-c3cccc(N4C(=O)c5ccccc5C4=O)c3)ncn2)cc1NS(C)(=O)=O [KIN001-270]; details: top dose 20 µM; top dose inferred
Experimental: as §1

[9] = compound: S=C(NCc1ccc2c(c1)OCO2)N1CCN(c2ncnc3c2oc2ccccc23)CC1 [MP470]; details: top dose 20 µM; top dose inferred
Experimental: as §1

[10] = compound: O=S(=O)(c1ccccc1)N(CC(F)(F)F)c1ccc(C(O)(C(F)(F)F)C(F)(F)F)cc1 [T0901317]; details: top dose 10.24 µM; top dose inferred
Experimental: as §1

[11] = top dose 1.024 µM, screen: GDSC drug entry 150
[12] = top dose 10 µM, screen: GDSC drug entry 1502

Row | Cell Line | AUC [1] | pIC50 [1] | AUC [2] | pIC50 [2] | AUC [3] | pIC50 [3] | AUC [4, 11] | pIC50 [4, 11] | AUC [5] | pIC50 [5] | AUC [6] | pIC50 [6] | AUC [7] | pIC50 [7] | AUC [8] | pIC50 [8] | AUC [9] | pIC50 [9] | AUC [4, 12] | pIC50 [4, 12] | AUC [10] | pIC50 [10]
1 | NCI-H1963 (small cell lung carcinoma, suspension) | 0.977 | < 4.80 | 0.601 | 7.53 | 0.986 | < 5.89 | 0.991 | < 5.99 | 0.878 | 6.09 | 0.549 | 6.38 | 0.991 | < 5.70 | 0.973 | < 4.70 |  |  |  |  |  | 
2 | NOS-1 (osteosarcoma, adherent) | 0.971 | < 4.80 | 0.445 | 7.96 | 0.773 | 6.21 | 0.939 | < 5.99 |  |  | 0.422 | 6.74 | 0.873 | < 5.70 | 0.926 | < 4.70 | 0.486 | 5.95 | 0.557 | 6.03 | 0.602 | 5.88
3 | OCI-M1 (acute myeloid leukaemia, suspension) | 0.995 | < 4.80 | 0.662 | 7.40 | 0.995 | < 5.89 | 0.993 | < 5.99 | 0.358 | 7.54 | 0.78 | 5.80 | 0.995 | < 5.70 | 0.922 | 4.74 | 0.898 | 4.84 | 0.993 | < 5.00 |  | 
4 | P30-OHK (lymphoblastic leukaemia, suspension) | 0.964 | < 4.80 | 0.621 | 7.49 | 0.991 | < 5.89 | 0.991 | < 5.99 | 0.167 | 8.10 | 0.517 | 6.46 | 0.978 | < 5.70 | 0.916 | < 4.70 | 0.804 | 5.09 | 0.988 | < 5.00 |  | 
5 | RL95-2 (endometrium, adherent) |  |  |  |  | 0.908 | < 5.89 |  |  |  |  |  |  | 0.987 | < 5.70 | 0.942 | < 4.70 | 0.93 | < 4.70 | 0.972 | < 5.00 | 0.984 | < 4.99
6 | RPMI-8226 (myeloma, suspension) | 0.988 | < 4.80 | 0.654 | 7.40 | 0.986 | < 5.89 | 0.98 | < 5.99 |  |  | 0.421 | 6.71 | 0.911 | < 5.70 | 0.98 | < 4.70 | 0.945 | < 4.70 | 0.986 | < 5.00 | 0.951 | < 4.99
7 | SJSA-1 (bone, adherent) | 0.961 | < 4.80 | 0.497 | 7.80 | 0.984 | < 5.89 | 0.984 | < 5.99 |  |  | 0.52 | 6.45 | 0.983 | < 5.70 | 0.955 | < 4.70 | 0.969 | < 4.70 | 0.977 | < 5.00 | 0.982 | < 4.99

pIC50: −log10 of the molar value. IC50 is the fitted dose that halves viability relative to control wells, and lower means more sensitive; a limit (>, <) means that the fit lies beyond the doses tested. For AUC the same curve is integrated over the 256-fold range of doses and scaled to a fraction; it is 1 without any effect and falls as sensitivity rises. For some assays here: The top dose, if marked as inferred, comes from the curve model; the source does not state it. For some assays here: Drugs with an entry number were screened twice under separate entries, and the two screens often disagree.
